The full ranking holds about 16,000 sequences; the median of “Z-score” is about -0.37, and the highest 2% start at about 3.2. The list shows a part of the results.
Tested on: RBM10 RRM1-ZnF (GST-tagged construct)
Assay: RNAcompete 7-mer binding Z-score; higher = stronger binding preference
Method in brief: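 In 1 ml Hepes pH 7.8 buffer with KCl, NaCl, glycerol, DTT, BSA and glutathione Sepharose beads, GST-tagged RBM10 constructs (20 pmol) were incubated for 30 min at 4°C with 1.5 nmol of a designed pool of 241 399 RNAs up to 41 nt. Four 2-min washes at 4°C followed, and bound RNA was detected by microarray hybridisation. Heptamer motif enrichment was expressed as a one-sided Z-score across probes containing each motif.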

Sequence	RNAcompete 7-mer binding Z-score
CUACGCG	-0.402
CUCAUAU	-0.802
GCUCAAU	-0.519
AUGCUCC	-0.685
AGAGCGG	1.43
AGGGGAU	3.64
GAUAGCG	0.888
GAAUCUG	-0.652
UCGGCGG	0.378
AAGUCGA	-0.188
CAGGCAU	0.209
CCAGCGU	-0.578
UAUAAGC	-0.324
GGACCCA	-0.194
CUGUCAC	-0.815
CAUAACC	-0.779
GAUAUGA	0.41
ACAAGAG	0.456
GUUCGCC	-0.422
UUAGGUA	0.972
AGGGCCG	0.407
UACCGAC	-0.737
ACGGACG	0.927
UACGAAU	-0.35
AAAAGGU	2.33

Sequence	RNAcompete 7-mer binding Z-score
CUAUACC	-0.834
AACGUUG	-0.106
AGAAUAC	-0.438
UGCAACA	-0.425
GAUCAAC	-0.474
GGCUGUA	0.212
UGCACAC	-0.22
UGUAAGA	0.4
CUAUUGU	-0.685
CCGUUAC	-0.808
ACAAACA	-0.568
UCGGGUA	1.4
UCUAGAG	-0.428
CGGUCAA	-0.373
UAUAAAU	-0.431
AAGCCAG	-0.37
CUAACAG	-0.35
CAAGCAA	-0.422
UAUACAC	-0.655
CUGAGAC	-0.457
GCCUCAA	-0.759
CUGAGCC	-0.675
GUGUUGG	2.15
UCGAGAU	-0.35
GGCCCUC	-0.607

Sequence	RNAcompete 7-mer binding Z-score
GAGAGGA	2.21
CCUAGUU	-0.724
GAUCCCC	-0.526
CUUGUAG	-0.487
UCCAGCA	-0.487
UAUAAUU	-0.399
UAGGUCU	0.179
UGACGCU	-0.587
GUGUGCG	1.43
AUGUCUC	-0.558
UGUCACC	-0.724
UAACAAC	-0.535
ACCCACC	-0.383
AAAAAUC	-0.626
UUCGGAU	-0.347
GUAGUUG	0.846
CCCCUCA	-0.581
ACGAUAG	0.316
GACUAAG	0.183
UAAGCAA	-0.214
ACACUCG	-0.324
AUCACAA	-0.428
CGGAAGA	0.923
GGUCGGA	1.47
GGGAAUU	2.4

Sequence	RNAcompete 7-mer binding Z-score
CUGGGAC	1.16
CAGUUUG	-0.272
CACAGAG	0.095
GUUCCAG	-0.23
AAUAAUU	-0.688
GUGCUAC	-0.0739
UCAAGGA	0.891
CCUAUUC	-0.928
CCCCGUC	-0.34
CUGGCUU	-0.558
CUAGUCA	-0.461
GAGAAAC	0.166
AUCACCG	-0.685
UUCCUCA	-0.808
CGUGCGA	-0.301
GCCAGCA	-0.392
AGGUUCA	-0.0285
CAGCACA	-0.659
GGGGUCA	2.86
AUAAAGU	-0.155
CGUGUUU	-0.435
GUAUGGU	2.22
CAGACCC	-0.568
GAGAAUC	0.0593
AAUGGUG	2.79

From the supplement of paper PMC5499739
